Among all 3,200 compounds or so, about 110 (3.4%) showed an effect of 50% or more. This is one part of the list.
Each molecule was assayed on T1, V. cholerae SAD30. Conditions: relative growth, OD600, LB; 25 µM; inhibitor.
T1 construct: SAD30
Set-up: species or system S. aureus MSSA476 (TSB) or V. cholerae SAD30 (LB); 384-well bacterial growth screen at 25 uM, OD600 relative to DMSO control

Row | SMILES | % of control remaining [%]
1 | O=C(CCl)NS(=O)(=O)c1ccc(Cl)cc1 [4-E18, 2-chloro-N-(4-chlorobenzenesulfonyl)acetamide] | 99.8922
2 | Cc1ccc(N2CCN(C(=O)C(C)Cl)CC2=O)o1 (stereo not shown) [7-A16, 4-(2-chloropropanoyl)-1-(5-methylfuran-2-yl)piperazin-2-one] | 80.0925
3 | CC(c1ccccc1F)N1CCCC(NC(=O)CCl)C1=O (stereo not shown) [5-I10, 2-chloro-N-{1-[1-(2-fluorophenyl)ethyl]-2-oxopiperidin-3-yl}acetamide] | 94.4836
4 | C=CC(=O)NCc1ccc(C(C)(C)C)[nH]c1=O [3-P08, N-[(6-tert-butyl-2-oxo-1,2-dihydropyridin-3-yl)methyl]prop-2-enamide] | 110.969
5 | Cl.O=C(CCl)NC1CCN(c2ccncc2)CC1 [5-P09, 2-chloro-N-[1-(pyridin-4-yl)piperidin-4-yl]acetamide hydrochloride] | 108.101
6 | CC(NC(=O)CCl)c1cc(C(F)(F)F)[nH]n1 (stereo not shown) [5-P11, 2-chloro-N-{1-[5-(trifluoromethyl)-1H-pyrazol-3-yl]ethyl}acetamide] | 106.252
7 | CCC(NC(=O)CCl)c1nc(C)n[nH]1 (stereo not shown) [5-O14, 2-chloro-N-[1-(3-methyl-1H-1,2,4-triazol-5-yl)propyl]acetamide] | 95.8285
8 | Cc1cc(C(=O)CCl)c(C)n1-c1ccccn1 [10-C16, 2-chloro-1-[2,5-dimethyl-1-(pyridin-2-yl)-1H-pyrrol-3-yl]ethan-1-one] | 41.1455
9 | O=C(CCl)NCCc1cccc2c1Oc1ccccc1O2 [7-J18, 2-chloro-N-[2-(oxanthren-1-yl)ethyl]acetamide] | 77.317
10 | C=CC(=O)N1CCC(C(=O)Nc2ccc(N(C)C(C)=O)cc2)CC1 [2-D08, N-[4-(N-methylacetamido)phenyl]-1-(prop-2-enoyl)piperidine-4-carboxamide] | 90.1959
11 | CCC(=O)N1CCc2cc(C(=O)CCl)ccc21 [10-C22, 1-[5-(2-chloroacetyl)-2,3-dihydro-1H-indol-1-yl]propan-1-one] | 119.54
12 | Cc1ccc(C=C(C#N)C(=O)Nc2nccs2)s1 [8-P13, 2-cyano-3-(5-methylthiophen-2-yl)-N-(1,3-thiazol-2-yl)prop-2-enamide] | 76.0707
13 | CC(=O)Nc1ccc(NC(=O)N2CCSSCC2)cc1 [10-J11, N-(4-acetamidophenyl)-1,2,5-dithiazepane-5-carboxamide] | 93.6684

Reference: paper PMC11995724, “Antibiotic target discovery by integrated phenotypic and activity-based profiling of electrophilic fragments” (Cell chemical biology, 2025)
